Source: the RNAGym collection of RNA variant scans (doi:10.7554/elife.90254)
Read counts are not given, so values of variants with three or more changes are uncertain.

B1: LINE1-mini (parent)
chain: GGCAGAGCUCAACACAGCGUGGCAAAGUGGCUGUGGCUAGACUGCC

Variants of: B1
Experiment: self-cleavage, relative activity (ratio to wild type); higher = more cleavage; in vitro, sequencing; the parent is a self-cleaving ribozyme

Variant | self-cleavage
GGCAGAGCUCAACACAGCGUGGCAAAGUGGCAGUGGCCCGACUACC [U32A U38C A39C G44A] | 0.07
GGCAGAGCUCAACACAGCCUAGCAAAGUGCCUGUGGCUAGACUGCC [G19C G21A G30C] | 0.45
GGCAGAGCUCACCACAGCGUGGCAAAUUGGCUAUGUCUACACUGAC [A12C G27U G33A G36U G40C C45A] | 0
GGCAGAGCGCAACAUAGCGUGGCAAAGUGGCUAUGGCUAGACUGCC [U9G C15U G33A] | 0.09
GGCAGAGCUCAACACAGCGUGAGAAAGUGGCUGUGGGUAGACUGCC [G22A C23G C37G] | 0.01
GGCACAGCUCAACACAGCGUGGCAGUGUGGCUGUGGCUAGACUGCC [G5C A25G A26U] | 0.08
GGCAGAGAUCAACACAACGUAGCAUAGUGGCUGUGGCUAGACUGCA [C8A G17A G21A A25U C46A] | 0.31
GGCAGAGCUCAACACAGCGUUUCAAAGUGGUUGUGACUAGACUGCC [G21U G22U C31U G36A] | 0.17
GGGAGAGCUCAACACAGCGUGGCAAAGUUGCUGUGGCCAGACUGCC [C3G G29U U38C] | 0.15
GGCAGAGAUCAACACAGCGUGGCAAGGUGGCUUUGACUAAACUGCC [C8A A26G G33U G36A G40A] | 0.05
GGAAGAGCUCACUACAGCGUGGCAAAGUGCCUGUGGCUAGACUGCC [C3A A12C C13U G30C] | 0.06
CGCAGAGCUCAACACAGCUUGGCAAAGUGGCUGUGGCUAGAAUGCC [G1C G19U C42A] | 0.03
GGCAGAGCGCAACACAGCGCGGUAAAGUGGCUGUGGCUAGACUGCC [U9G U20C C23U] | 0.07
GGCAGAGCUUAACACAGCGUGGCAAUGUCCCUGUGGCUAAACUGCC [C10U A26U G29C G30C G40A] | 0.02
GGCAAACCACAACACAGCGUGGCAAAGUGCCGGUGGCUAGACUGCC [G5A G7C U9A G30C U32G] | 0.03
GGCAGAGCUCAACACAGAGUGGCAAAAUGCCUGUGGCUAGACUGCA [C18A G27A G30C C46A] | 0.64
GGCAGAGCUCAACACAGCGUGGCAAAGUGCCUGUGGCUAGAAUGCA [G30C C42A C46A] | 0.08
GGCAGAGCUAAACACAGCGUGGCAAAGUGGCUGUGUCUAGACCGCC [C10A G36U U43C] | 0.02
GGCACAGCUCAACACAGCGUGGCCUAGUGGCUGUGGCUACACUGCC [G5C A24C A25U G40C] | 0.01

Variant | self-cleavage
GGUAGAGCUCAACACAGCGUGCCAAAGUUGCUGUGGCUAGACUGCC [C3U G22C G29U] | 0.28
UGCAGAGCGUAAGACAGCGUGGCAAAGUGGCUGUGGCUAGCCUGCC [G1U U9G C10U C13G A41C] | 0.01
GGCAGAGCCCAACACUGCGUGGCAAAGUGGUUCAGGCUAGACUGCC [U9C A16U C31U G33C U34A] | 0
GGCAGAGCUCAACACAGCGUGGCAAAGUGGGUGAGGCCAGACUGCC [C31G U34A U38C] | 0.05
GGCAGAGCUCAACACAGCGUGACAAAGUGGCUGUGACUAGACUACC [G22A G36A G44A] | 0.45
GGCAGAGCUCAACACAGCGUGGCAAAGUGGUUGUGGCAGGACUGCC [C31U U38A A39G] | 0.02
GGCAGAGCUCAAUACAGAGUGGUAAAGUGGCUGUGGCUAAACUGCC [C13U C18A C23U G40A] | 0.03
GGCAGUGCUCAUCACCGCGUGGCAAAGUGGCUGUGGCUAGAGUGCC [A6U A12U A16C C42G] | 0.02
GGCAGAGCUUAACACAGCGCGGCAAAGUGGCUGUUGCUAGACUGCC [C10U U20C G35U] | 0.04
GGCAGAGCUCAACAAAGCGGGGUAAAGUGGCUGUGGCUAGACUGUC [C15A U20G C23U C45U] | 0.04
GGCAGAGCUAAACACAGCGUGCCAAAGUAGCUGUGGCUGGACUGCC [C10A G22C G29A A39G] | 0.01
GGCAGAGCACGACACAACGCGGCAAAGUGGGUGUGGCUAGACUGCC [U9A A11G G17A U20C C31G] | 0
GGCAUAGCACAACACAGCGUUGCAAAGUGGCUGUGGCUCGACUGCC [G5U U9A G21U A39C] | 0.14
GGCAGAGCUCAAGAAAGCGUGGCAAAGUGACUGUGGCUAGACUGCC [C13G C15A G30A] | 0.12
GCCAGAGCUCAAUACAGCGUGGCAAAGGGGCUGUGGCUAGACUGCC [G2C C13U U28G] | 0.01
GGCAGAGCUCAACACAGCGAUGCACAGUGGCUGUGGCGAGACUGCC [U20A G21U A25C U38G] | 0
GGCAGAGUUCAAUACAGCGUGGCAAAGGGGCUGUGGCUAGACUCCC [C8U C13U U28G G44C] | 0.07
GGCAGACGUGAACACAGAGUGGCAAAGUGGCUGUGGCUAGACUGCC [G7C C8G C10G C18A] | 0.01
GGCAGAGCUCAACACAGCGUGGCAAAGCGGCUGUGGCUAUACAGCC [U28C G40U U43A] | 0.09

Variant | self-cleavage
GGCAGAGCUCAACACAGCGUGGCAAGGUGGCUGGGGUUCGACUGCC [A26G U34G C37U A39C] | 0.03
GGCAGAGCUCAAAACAGAGUGGCAAAGUGGUUGUGGCUAGACUGCC [C13A C18A C31U] | 0.03
CGCAGAGCUCAACACUGCGUCGCAAAGUGGCUGUGGCUAAACUGCC [G1C A16U G21C G40A] | 0
GGCAGAGAUCAACUGUGCGUGGCAAAGUGGCUGAGGCUGGACUGCA [C8A A14U C15G A16U U34A A39G C46A] | 0.06
GUCAGAGCCCCACACAGCGUGGCAAAGUGGCUGUGGCUAGACUGCC [G2U U9C A11C] | 0.01
GGCAUAGCUCAAAACAGCGUGGCAAAGUGGCUGUGGCUAUAGUGCC [G5U C13A G40U C42G] | 0.12
GGCAGCGCUCAACACGGAGUGUAAAAGUGGCUGUCGCUAGAGUGCC [A6C A16G C18A G22U C23A G35C C42G] | 0
GGCAGAGCUCAACACAGCGUGGAAAAGUGUCUGUGCAUAGACUGCC [C23A G30U G36C C37A] | 0.08
GGCAGAGCUCAACACAGCGUGGCACAGUGGCUGUGGCUAGUCUCCC [A25C A41U G44C] | 0.14
GGCAGAGCUCGACACAGCGUGGCAAAGUGGCCGGGGCUAGACUGCC [A11G U32C U34G] | 0
AGCAGAGCUCAACACAGCGUGGUUCAGUGGCUGUGGCUAUACUGAC [G1A C23U A24U A25C G40U C45A] | 0.03
GUCAGAGCUCAACAGAGCGCGGCAAAGUGGCUGUGGCUAGACUGCC [G2U C15G U20C] | 0.01
GGGAGAGCUCAACACAGCGUGGCAAAGUGGCUGUGGCUAAAUUGCA [C3G G40A C42U C46A] | 0.11
GGAAUAGCUCAACACAGCGUUGCAAAGUGGCUGUGGCUAGACUGCC [C3A G5U G21U] | 0.17
GGCAGAGCUCAAUACAGGGUCGCAAAGUGGCUGUGGGUAGACUGCC [C13U C18G G21C C37G] | 0.01
GGCAGAGCUCAACAUAGCGUGGCAAGGUGGAUGUGGCUAGACUGCC [C15U A26G C31A] | 0.05
GGUAGAGCUCAACACAGCGUGGCAAAGUGGCUUUGGAUAGACUGCC [C3U G33U C37A] | 0.21
GGCAGAGCUCAACACAGCGUGGCAAAGUGGCUUUGGUUAGACCGCC [G33U C37U U43C] | 0.02
